Test results published in US20180256644A1 (ALPINE IMMUNE SCIENCES, published 2018).

T1: human TIGIT (human, UniProt Q495A1 22-244)
T1 sequence: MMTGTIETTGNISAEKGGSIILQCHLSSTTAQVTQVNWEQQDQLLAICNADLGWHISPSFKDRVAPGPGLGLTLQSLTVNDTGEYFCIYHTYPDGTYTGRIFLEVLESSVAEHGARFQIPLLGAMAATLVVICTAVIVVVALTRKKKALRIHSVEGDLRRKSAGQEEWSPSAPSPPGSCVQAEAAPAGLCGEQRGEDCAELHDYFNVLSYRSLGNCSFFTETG

T2: CD96 (UniProt P40200 22-585, limits assumed)
T2 construct: whole, on cells
T2 sequence (looked up): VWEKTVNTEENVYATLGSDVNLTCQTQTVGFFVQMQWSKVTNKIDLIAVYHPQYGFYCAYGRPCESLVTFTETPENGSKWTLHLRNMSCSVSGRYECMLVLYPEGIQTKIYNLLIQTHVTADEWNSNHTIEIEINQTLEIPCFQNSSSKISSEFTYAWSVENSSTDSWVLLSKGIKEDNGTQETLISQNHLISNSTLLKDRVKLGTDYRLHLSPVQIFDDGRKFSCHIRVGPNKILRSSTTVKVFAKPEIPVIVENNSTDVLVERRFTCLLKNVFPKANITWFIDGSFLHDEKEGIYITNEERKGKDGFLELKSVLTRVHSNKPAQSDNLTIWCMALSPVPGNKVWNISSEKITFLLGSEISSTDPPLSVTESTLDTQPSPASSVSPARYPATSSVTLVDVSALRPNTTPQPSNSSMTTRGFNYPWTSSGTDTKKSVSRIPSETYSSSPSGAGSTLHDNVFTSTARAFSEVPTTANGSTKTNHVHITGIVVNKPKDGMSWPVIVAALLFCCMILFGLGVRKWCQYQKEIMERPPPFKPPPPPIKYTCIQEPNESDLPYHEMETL

T3: human CD226 (human, UniProt Q15762 19-336)
T3 sequence: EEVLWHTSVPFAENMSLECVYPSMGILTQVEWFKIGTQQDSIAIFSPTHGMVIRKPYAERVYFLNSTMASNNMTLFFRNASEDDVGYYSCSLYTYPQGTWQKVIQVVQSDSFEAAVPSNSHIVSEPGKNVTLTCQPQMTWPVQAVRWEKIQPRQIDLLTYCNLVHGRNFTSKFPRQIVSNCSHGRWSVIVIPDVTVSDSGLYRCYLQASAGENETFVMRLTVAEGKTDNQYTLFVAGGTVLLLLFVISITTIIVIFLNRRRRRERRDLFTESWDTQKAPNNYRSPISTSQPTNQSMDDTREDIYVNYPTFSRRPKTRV

B1: Wild type CD155 IgV Fc fusion (Fc fusion)
chain: PGTGDVVVQAPTQVPGFLGDSVTLPCYLQVPNMEVTHVSQLTWARHGESGSMAVFHQTQGPSYSESKRLEFVAARLGAELRNASLRMFGLRVEDEGNYTCLFVTFPQGSRSVDIWLAAA[human IgG1 Fc with C220S R292C N297G V302C (EU numbers) not written out]
notes: also called unmodified CD155 IgV-Fc
B2: CD155 IgV A81V, L83P Fc fusion (Fc fusion)
chain: PGTGDVVVQAPTQVPGFLGDSVTLPCYLQVPNMEVTHVSQLTWARHGESGSMAVFHQTQGPSYSESKRLEFVAARLGVEPRNASLRMFGLRVEDEGNYTCLFVTFPQGSRSVDIWLAAA[human IgG1 Fc with C220S R292C N297G V302C (EU numbers) not written out]
B3: CD155 IgV P18T, F91S, R94H Fc fusion (Fc fusion)
chain: PGTGDVVVQAPTQVTGFLGDSVTLPCYLQVPNMEVTHVSQLTWARHGESGSMAVFHQTQGPSYSESKRLEFVAARLGAELRNASLRMSGLHVEDEGNYTCLFVTFPQGSRSVDIWLAAA[human IgG1 Fc with C220S R292C N297G V302C (EU numbers) not written out]
B4: CD112 IgV S118Y Fc fusion (Fc fusion)
chain: QDVRVQVLPEVRGQLGGTVELPCHLLPPVPGLYISLVTWQRPDAPANHQNVAAFHPKMGPSFPSPKPGSERLSFVSAKQSTGQDTEAELQDATLALHGLTVEDEGNYTCEFATFPKGYVRGMTWLAAA[human IgG1 Fc with C220S R292C N297G V302C (EU numbers) not written out]

What was measured:
Test in all cases: flow cytometry, transfected cells
human TIGIT [1] = target: T1, human TIGIT
CD96 = target: T2, CD96
human CD226 [2] = target: T3, human CD226
human TIGIT [3] = target: T1, human TIGIT; remark: listed apart in the source
human CD226 [4] = target: T3, human CD226; remark: listed apart in the source

MFI (human TIGIT [1])	MFI parental ratio (human TIGIT [1])	MFI (CD96)	MFI parental ratio (CD96)	MFI (human CD226 [2])	MFI parental ratio (human CD226 [2])	MFI (human TIGIT [3])	MFI (human CD226 [4])	Binder
2720	1	3080	1	3720	1	–	–	B1
2910	1.1	2620	0.8	4170	1.1	–	–	B2
2940	1.1	2510	0.8	3590	1	–	–	B3
–	–	–	–	–	–	2920	2000	B4

Where two headings read alike, the source gives them in different places.
